# Measured values reported in the supplement of paper PMC8728848.
# The other results are listed elsewhere or left out.
# B1: Threefoil (Haloarcula marismortui) (protein)
# chain: GSSHHHHHHHHHHSSGLVPRGSHMGDGYYKLVARHSGKALDVENASTSDGANVIQYSYSGGDNQQWRLVDLGDGYYKLVARHSGKALDVENASTSDGANVIQYSYSGGDNQQWRLVDLGDGYYKLVARHSGKALDVENASTSDGANVIQYSYSGGDNQQWRLVDL
# Assays:
# Experiment in all cases: glycan array binding signal (z-score within array); higher = stronger binding
# Settings in all cases: glycan notation: IUPAC condensed, linker removed
# [1] = biological target: GlcNAc(b1-3)GalNAc
# Summary of the method: (§1)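 The binding signal is a Z-score computed within each array and averaged over linkers. Arrays of the same protein sequence at different concentrations or buffers were also averaged together. Data originate from 3228 arrays in the Consortium for Functional Glycomics database, kept only where the protein sequence was available.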
# [2] = biological target: GlcNAc(b1-3)Man
# Summary of the method: as §1
# [3] = biological target: GlcNAc(b1-3)[GlcNAc(b1-4)][GlcNAc(b1-6)]GlcNAc
# Summary of the method: as §1
# [4] = biological target: GlcNAc(b1-3)[GlcNAc(b1-6)]Gal(b1-4)GlcNAc
# Summary of the method: as §1
# [5] = biological target: GlcNAc(b1-3)[GlcNAc(b1-6)]GalNAc
# Summary of the method: as §1
# [6] = biological target: GlcNAc(b1-4)Gal(b1-4)GlcNAc
# Summary of the method: as §1
# [7] = biological target: GlcNAc(b1-4)GlcNAc
# Summary of the method: as §1
# [8] = biological target: GlcNAc(b1-4)GlcNAc(b1-4)GlcNAc
# Summary of the method: as §1
# [9] = biological target: GlcNAc(b1-4)GlcNAc(b1-4)GlcNAc(b1-4)GlcNAc(b1-4)GlcNAc
# Summary of the method: as §1
# [10] = biological target: GlcNAc(b1-4)GlcNAc(b1-4)GlcNAc(b1-4)GlcNAc(b1-4)GlcNAc(b1-4)GlcNAc
# Summary of the method: as §1
# [11] = biological target: GlcNAc(b1-4)[GlcNAc(b1-6)]GalNAc
# Summary of the method: as §1
# [12] = biological target: GlcNAc(b1-6)Gal(b1-4)GlcNAc
# Summary of the method: as §1
# [13] = biological target: GlcNAc(b1-6)GalNAc
# Summary of the method: as §1
# [14] = biological target: GlcNAc6S(b1-3)Gal(b1-4)GlcNAc
# Summary of the method: as §1
# [15] = biological target: Kdn(a2-3)Gal(b1-3)GalNAc
# Summary of the method: as §1
# [16] = biological target: Kdn(a2-3)Gal(b1-3)GlcNAc
# Summary of the method: as §1
# [17] = biological target: Kdn(a2-3)Gal(b1-4)Glc
# Summary of the method: as §1
# [18] = biological target: Kdn(a2-3)Gal(b1-4)GlcNAc
# Summary of the method: as §1
# [19] = biological target: Kdn(a2-3)Gal(b1-4)[Fuc(a1-3)]GlcNAc
# Summary of the method: as §1
# [20] = biological target: Kdn(a2-6)Gal(b1-4)GlcNAc
# Summary of the method: as §1
# [21] = biological target: Man(a1-2)Man(a1-2)Man(a1-3)Man
# Summary of the method: as §1
# [22] = biological target: Man(a1-2)Man(a1-2)Man(a1-6)[Man(a1-3)]Man
# Summary of the method: as §1
# [23] = biological target: Man(a1-2)Man(a1-3)Man
# Summary of the method: as §1
binder,measurement,setting,value
B1,glycan array binding signal (z-score),[1],-0.111
same,glycan array binding signal (z-score),[2],-0.087
same,glycan array binding signal (z-score),[3],-0.145
same,glycan array binding signal (z-score),[4],-0.224
same,glycan array binding signal (z-score),[5],-0.164
same,glycan array binding signal (z-score),[6],-0.301
same,glycan array binding signal (z-score),[7],-0.198
same,glycan array binding signal (z-score),[8],-0.199
same,glycan array binding signal (z-score),[9],-0.318
same,glycan array binding signal (z-score),[10],-0.198
same,glycan array binding signal (z-score),[11],-0.301
same,glycan array binding signal (z-score),[12],0.035
same,glycan array binding signal (z-score),[13],-0.181
same,glycan array binding signal (z-score),[14],0.091
same,glycan array binding signal (z-score),[15],-0.172
same,glycan array binding signal (z-score),[16],-0.168
same,glycan array binding signal (z-score),[17],0.03
same,glycan array binding signal (z-score),[18],-0.158
same,glycan array binding signal (z-score),[19],-0.156
same,glycan array binding signal (z-score),[20],-0.172
same,glycan array binding signal (z-score),[21],-0.259
same,glycan array binding signal (z-score),[22],-0.271
same,glycan array binding signal (z-score),[23],-0.174
